Results: the supplement of paper PMC8728848
Some of the results follow.

Legend:
Assay in all cases: glycan array binding signal (z-score within array); higher = stronger binding
Details in all cases: glycan notation: IUPAC condensed, linker removed
[1] = molecular target: Gal(b1-3)GlcNAc(b1-3)Gal(b1-4)[Fuc(a1-3)]GlcNAc(b1-6)[Gal(b1-3)GlcNAc(b1-3)]Gal(b1-4)Glc
In short: (§1)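 The binding signal is a Z-score computed within each array and averaged over linkers. Arrays of the same protein sequence at different concentrations or buffers were also averaged together. Data originate from 3228 arrays in the Consortium for Functional Glycomics database, kept only where the protein sequence was available.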

[2] = molecular target: Gal(b1-3)GlcNAc(b1-3)GalNAc
In short: as §1

[3] = molecular target: Gal(b1-3)GlcNAc(b1-6)Gal(b1-4)GlcNAc
In short: as §1

[4] = molecular target: Gal(b1-3)GlcNAc(b1-6)GalNAc
In short: as §1

[5] = molecular target: Gal(b1-3)GlcNAc(b1-6)[Gal(b1-3)]GalNAc
In short: as §1

Gal(b1-3)GlcNAc6S = molecular target: Gal(b1-3)GlcNAc6S
In short: as §1

[6] = molecular target: Gal(b1-3)[Fuc(a1-4)]GlcNAc
In short: as §1

[7] = molecular target: Gal(b1-3)[Fuc(a1-4)]GlcNAc(b1-2)Man
In short: as §1

[8] = molecular target: Gal(b1-3)[Fuc(a1-4)]GlcNAc(b1-2)Man(a1-3)[Gal(b1-3)[Fuc(a1-4)]GlcNAc(b1-2)Man(a1-6)]Man(b1-4)GlcNAc(b1-4)[Fuc(a1-6)]GlcNAc
In short: as §1

[9] = molecular target: Gal(b1-3)[Fuc(a1-4)]GlcNAc(b1-3)Gal(b1-3)[Fuc(a1-4)]GlcNAc
In short: as §1

[10] = molecular target: Gal(b1-3)[Fuc(a1-4)]GlcNAc(b1-3)Gal(b1-4)GlcNAc
In short: as §1

[11] = molecular target: Gal(b1-3)[Fuc(a1-4)]GlcNAc(b1-3)Gal(b1-4)[Fuc(a1-3)]GlcNAc
In short: as §1

[12] = molecular target: Gal(b1-3)[Fuc(a1-4)]GlcNAc(b1-6)GalNAc
In short: as §1

[13] = molecular target: Gal(b1-3)[GlcNAc(b1-6)]GalNAc
In short: as §1

[14] = molecular target: Gal(b1-3)[Neu5Ac(a2-6)]GalNAc
In short: as §1

[15] = molecular target: Gal(b1-3)[Neu5Ac(a2-6)]GlcNAc(b1-4)Gal(b1-4)Glc
In short: as §1

[16] = molecular target: Gal(b1-3)[Neu5Ac(a2-6)]GlcNAc(b1-6)Gal(b1-4)Glc
In short: as §1

[17] = molecular target: Gal(b1-3)[Neu5Ac(b2-6)]GalNAc
In short: as §1

Gal(b1-4)Gal = molecular target: Gal(b1-4)Gal
In short: as §1

[18] = molecular target: Gal(b1-4)GalNAc(a1-3)[Fuc(a1-2)]Gal(b1-4)GlcNAc
In short: as §1

[19] = molecular target: Gal(b1-4)GalNAc(b1-3)[Fuc(a1-2)]Gal(b1-4)GlcNAc
In short: as §1

Gal(b1-4)Glc = molecular target: Gal(b1-4)Glc
In short: as §1

Gal(b1-4)Glc6S = molecular target: Gal(b1-4)Glc6S
In short: as §1

Gal(b1-4)GlcNAc = molecular target: Gal(b1-4)GlcNAc
In short: as §1

[20] = molecular target: Gal(b1-4)GlcNAc(a1-6)Gal(b1-4)GlcNAc
In short: as §1

Gal(b1-4)GlcNAc(b1-2)Man = molecular target: Gal(b1-4)GlcNAc(b1-2)Man
In short: as §1

[21] = molecular target: Gal(b1-4)GlcNAc(b1-2)Man(a1-3)Man(b1-4)GlcNAc(b1-4)GlcNAc
In short: as §1

[22] = molecular target: Gal(b1-4)GlcNAc(b1-2)Man(a1-3)[Gal(b1-4)GlcNAc(b1-2)Man(a1-6)]Man(b1-4)GlcNAc(b1-4)GlcNAc
In short: as §1

[23] = molecular target: Gal(b1-4)GlcNAc(b1-2)Man(a1-3)[Gal(b1-4)GlcNAc(b1-2)Man(a1-6)]Man(b1-4)GlcNAc(b1-4)[Fuc(a1-6)]GlcNAc
In short: as §1

[24] = molecular target: Gal(b1-4)GlcNAc(b1-2)Man(a1-3)[Gal(b1-4)GlcNAc(b1-2)Man(a1-6)][Gal(b1-4)GlcNAc(b1-4)]Man(b1-4)GlcNAc(b1-4)[Fuc(a1-6)]GlcNAc
In short: as §1

[25] = molecular target: Gal(b1-4)GlcNAc(b1-2)Man(a1-3)[Gal(b1-4)GlcNAc(b1-2)Man(a1-6)][GlcNAc(b1-4)]Man(b1-4)GlcNAc(b1-4)[Fuc(a1-6)]GlcNAc
In short: as §1

[26] = molecular target: Gal(b1-4)GlcNAc(b1-2)Man(a1-3)[GlcNAc(b1-2)Man(a1-6)]Man(b1-4)GlcNAc(b1-4)GlcNAc
In short: as §1

[27] = molecular target: Gal(b1-4)GlcNAc(b1-2)Man(a1-3)[GlcNAc(b1-4)][Gal(b1-4)GlcNAc(b1-2)Man(a1-6)]Man(b1-4)GlcNAc(b1-4)GlcNAc
In short: as §1

[28] = molecular target: Gal(b1-4)GlcNAc(b1-2)Man(a1-3)[Man(a1-6)]Man(b1-4)GlcNAc(b1-4)GlcNAc
In short: as §1

[29] = molecular target: Gal(b1-4)GlcNAc(b1-2)Man(a1-6)Man(b1-4)GlcNAc(b1-4)GlcNAc
In short: as §1

[30] = molecular target: Gal(b1-4)GlcNAc(b1-2)Man(a1-6)[GlcNAc(b1-2)Man(a1-3)]Man(b1-4)GlcNAc(b1-4)GlcNAc
In short: as §1

[31] = molecular target: Gal(b1-4)GlcNAc(b1-2)Man(a1-6)[Man(a1-3)]Man(b1-4)GlcNAc(b1-4)GlcNAc
In short: as §1

B1: GSL-I (Griffonia simplicifolia) (protein)
chain: FNLPNFWSDVKDNIIFQGDANTTAGTLQLCKTNQYGNPLQYRAGRALYSDPVQLWDNKTGSVASFYTEFTFFLKITGDGPADGLAFFLAPPDSDVKDAGAYLGLFNKSTATQPSKNQVVAVEFDTWKNTDFPEPSYRHIGINVNSIVSVATKRWEDSDIFSGKIATARISYDGSAKILTVVLSYPDGADYILSHSVDLSKNLPNPIRVGISASTGANQFLTVYVLSWRFSSALQSTSVNAAMGPEIIRTVV
- glycan array binding signal (z-score) [1]: -0.247
- glycan array binding signal (z-score) [2]: -0.203
- glycan array binding signal (z-score) [3]: -0.171
- glycan array binding signal (z-score) [4]: -0.238
- glycan array binding signal (z-score) [5]: -0.148
- glycan array binding signal (z-score) (Gal(b1-3)GlcNAc6S): -0.277
- glycan array binding signal (z-score) [6]: -0.224
- glycan array binding signal (z-score) [7]: -0.235
- glycan array binding signal (z-score) [8]: 0.288
- glycan array binding signal (z-score) [9]: -0.172
- glycan array binding signal (z-score) [10]: -0.324
- glycan array binding signal (z-score) [11]: -0.184
- glycan array binding signal (z-score) [12]: 0.019
- glycan array binding signal (z-score) [13]: -0.102
- glycan array binding signal (z-score) [14]: -0.223
- glycan array binding signal (z-score) [15]: -0.233
- glycan array binding signal (z-score) [16]: -0.317
- glycan array binding signal (z-score) [17]: -0.281
- glycan array binding signal (z-score) (Gal(b1-4)Gal): -0.106
- glycan array binding signal (z-score) [18]: -0.246
- glycan array binding signal (z-score) [19]: -0.274
- glycan array binding signal (z-score) (Gal(b1-4)Glc): -0.194
- glycan array binding signal (z-score) (Gal(b1-4)Glc6S): -0.174
- glycan array binding signal (z-score) (Gal(b1-4)GlcNAc): -0.22
- glycan array binding signal (z-score) [20]: -0.189
- glycan array binding signal (z-score) (Gal(b1-4)GlcNAc(b1-2)Man): -0.107
- glycan array binding signal (z-score) [21]: -0.218
- glycan array binding signal (z-score) [22]: -0.265
- glycan array binding signal (z-score) [23]: -0.084
- glycan array binding signal (z-score) [24]: -0.258
- glycan array binding signal (z-score) [25]: -0.149
- glycan array binding signal (z-score) [26]: -0.302
- glycan array binding signal (z-score) [27]: -0.194
- glycan array binding signal (z-score) [28]: -0.159
- glycan array binding signal (z-score) [29]: -0.055
- glycan array binding signal (z-score) [30]: -0.213
- glycan array binding signal (z-score) [31]: -0.194
